Test results as given in the RNAGym collection of RNA variant scans (doi:10.1093/nar/gkz1192).
Read counts are not given, so values of variants with three or more changes are uncertain.

B1: CPEB3 Ribozyme (parent)
chain: UAACAGGGGGCCACAGCAGAAGCGUUCACGUCGCAGCCCCUGUCAGAUUCUGGUGAAUCUGCGAAUUCUGCUGUAUAUCUC

Variants of: B1
Assay: self-cleavage, relative activity (ratio to wild type); higher = more cleavage; in vitro, sequencing
Procedure, shortened: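 For each CPEB3 ribozyme variant, relative activity is its cleaved/total read fraction divided by the unmutated ribozyme's. Barcoded error-prone PCR libraries were transcribed by T7 RNA polymerase (5 hours, 37°C) and held in DNase I for 15 min before an EDTA stop, with cleavage occurring throughout. Template-switching reverse transcription and Illumina sequencing were used to read the RNAs. A 5-read minimum applied, and results are the mean of three batches.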

Variant	self-cleavage
UAACAGGGAGCCACAGUAGAAGCGUUCAGGUCGCAGCCCCUGUCAGAUUCUGGUGAAUCUGCGAAUUCUGCUGUAUAUCUC [G9A C17U C29G]	0.18
UAACAGGGAGCCACAGCAGAAGCGUUCACGUCGCGGCCCCCGUCAGAUUCUGGUGAAUCUGCGAAUUCUGCUGUAUAUCCC [G9A A35G U41C U80C]	1.05
UAACAGGGAGCCAGAGCAGAAGCGUUCACGUCGCAGCCCCUGUCGGAUUCUGGUGAAUCUGCGAAUUCUGCUGUAUAUCUC [G9A C14G A45G]	0.05
UAACAGGGAGCCACAGCGGAAGCGUUCUCGUCGCAGCCCAAGUCAGAUUCUGGUGAUUCUGCGAAUUCUGCUGUAUAUCUC [G9A A18G A28U C40A U41A A57U]	0.04
UAACAGGGAGCCACAGCAGAAGCGUUCGCGACGCUGCCCCUGUCAGAUUCUGGUGAGUCUGCGAAUUCUGCUGUAUUUCUC [G9A A28G U31A A35U A57G A77U]	0.09
UAACAGGGAGCCACGGCGGAAGCGUACACGUCGCAGCCCCUGUCAGAUUCUGGUGAAUCUGCGAACUCUGCUGUAUAUCUC [G9A A15G A18G U26A U66C]	0.14
UAACAGGGAGCCACAGCAGAAGCGUUCGCGUCGCGGCCCCUGUCAGAUACUGGUGAAUCUGCGAAUCCUGCUGUAUAUCUC [G9A A28G A35G U49A U67C]	0.09
UAACAGGGAGCCACGGCAGAAGCGUUCACGUCGCAGUCCCUGUCAGAUUCUGGUGAAUCUGCGAAUUCUGCUGUAUAGCUC [G9A A15G C37U U78G]	0.11
UAACAGGGAGCCACAGCUGAAGCGUUCACGUCGCAGCCCCUGUCAGAUUCAGGUGAAUCUGCGAAUUCUGCUGUAUAUCAC [G9A A18U U51A U80A]	0.39
UAACAGGGAGCCACAGCAGAAGCGUUCAUGUCGCAGCCCCUGUCCGAUCCUGGUGAAUCUGCGAAUUCUGCGGUAUAUCUC [G9A C29U A45C U49C U72G]	0.14
UAACAGGGAGCCACUGCGGAAGCGUUCACGUCGCAGCCCUAGUCAGAUUCUGGUGAAUCUGCGAAUUCUGCUGUAUAUCUC [G9A A15U A18G C40U U41A]	0.2
UAACAGGGAGCCACUGCAGAAGCGUUCACGGCGCAGCCCCCGUCAGGUUCUGGUGAAUCUGCGAAUUCUGCUGUAUAUCUC [G9A A15U U31G U41C A47G]	0.22
UAACAGGGAGCCACAGUAGAAGCGUCCAGGUCGCAGCCCCUGUCAGAUUCUGGUGAAUCUGCGAAUUCUGCUGUAUAUCUC [G9A C17U U26C C29G]	0.04
UAACAGGGAGCCACUGCGGAAGCGUUCACGUCGCAGCCCCUGUCAGAUUCUGGUGAAUCUGCGAAUUCUGCUGUAUAUCUC [G9A A15U A18G]	0.32
UAACAGGGAGCCACAGCAGAAGCGUUCUCGUCGCAGCCCCUGUCAGAUUCCGGUGAAUCUGCGAGUUCUGCUGUAUAUCUC [G9A A28U U51C A65G]	0.06
UAACAGGGAGCCACAGCAGAAGCGUUCGCGUCGCAGCCCCAGUCAGAUUCUGGUGAAUCUGCGAAUUCUGCUGUAUAUCUC [G9A A28G U41A]	0.31
UAACAGGGAGCCACGGCAGAAGCGCUCACGUCGCAGCCCCUGUCAGAUUCUGGUGAAUCCGCGAACUCUGCUGUAUAUCUC [G9A A15G U25C U60C U66C]	0.26

Variant	self-cleavage
UAACAGGGAGCCACUGCAGAAGCGUUCUCGUCGCUGCCCCUGUCAGAUUCUGGUGAAUCUGCGAAUUCUGCUGUAUAUCUC [G9A A15U A28U A35U]	0.07
UAACAGGGAGCCACAGCAGGAGCGUUCACGUCGCAGCCCCAGUCAGAUUCUGGUGUAUCUGCGAAUUCUGCUGUAUAUCUC [G9A A20G U41A A56U]	0.18
UAACAGGGAGCCACAGCAGAAGCGUUCACGUCGCAGCUCCCGUCAGAUUCUGGUGAAUCUGCGAAUUCUGCCGCAUGUCUC [G9A C38U U41C U72C U74C A77G]	1.28
UAACAGGGAGCCACAGCAGAAGCGUUCACGUCGCGGCCCCCGUCAGAUUCUAGUGAAUCUGCGAAUUCUGCUGUAUAUCUC [G9A A35G U41C G52A]	1.04
UAACAGGGAGCCACAGCGGGGGCGUCCACGUCGCAGCCCCUGUCAGAUUCUGGUGAAUCUGCGGAUUCUGCUGUAUAUCUC [G9A A18G A20G A21G U26C A64G]	0.05
UAACAGGGAGCCACUGCAGAAGCGUUCACGUCGCAGCCCCUGUCAGAUUCUGGUGAAUCUGCGUAUUCUGCUGUAUAUCUC [G9A A15U A64U]	0.06
UAACAGGGAGCCACAGCAGAAGCGUUAACGUCGCGGCCCCUGUCAGAUUCCGGCGAAUCUGCGAAUUCUGCUGUAUAUCCC [G9A C27A A35G U51C U54C U80C]	0.07
UAACAGGGAGCCACUGCAGAAGCGUUCACGUCGCUGCCCCUGUCAGAUACUGGUGAAUCUGCGAAUUCUGCCGUAUGUCUC [G9A A15U A35U U49A U72C A77G]	0.03
UAACAGGGAGCCACAGCAGAAGCGUUCACGUUGCAGCCCCUGUCAGAUUCUGGUGAAUCCGCGAAUUCCGCUGUAUAUCUC [G9A C32U U60C U69C]	0.05
UAACAGGGAGCCACAGCAGAAGCGUUCACGUCGCAGCCCCUGUCGGAUUCAGGUGGAUCUGCGAAUUCUGCUGUAUAUCUC [G9A A45G U51A A56G]	0.08
UAACAGGGAGCCACGGCAGAAGCUUUCACGUCGCAGCCCCUGUCAGAUUCUAGUGAACCUGCGAAUUCUGCUGUAUAUCUC [G9A A15G G24U G52A U58C]	0.06
UAACAGGGAGCCACAGCAGUAGCGUUCACGUCGCAGCCCCUGUCAGAUUCUGGUGAAUCUGCGAGUUCUGCUGUAUAUCUC [G9A A20U A65G]	0.05
UAACAGGGAGCCACAGCAGAGGCGUUCACGUCGCAGCCCCUGCCAGAUUCUGGCGAAUAUGCAAGUUCUGCUGUAUAUCUC [G9A A21G U43C U54C C59A G63A A65G]	0.1
UAACAGGGAGCCACAGCGGAAGCGUUCACAUCGCAGCCCCUGUCAGAUUCUGGUGAAUCUGCGAAUUCUGCUGUAUAUCUC [G9A A18G G30A]	0.24
UAACAGGGAGCCACUGCAGAAGCGUACACGUCGCGGCCCACGUCAGCUUCUGGUGAAUCUGCGAAUUCUGCUGUAUAUCUC [G9A A15U U26A A35G C40A U41C A47C]	0.04
UAACAGGGAGCCACAGCAGAAGCGUUCACGUCGCAGCCCCUGUCAGAUUCUGGUGGAUCUGCGAAUUCUGCUGUAUGUCUC [G9A A56G A77G]	0.42
UAACAGGGAGCCACAGCCGAAGCGUUCACGUCGCAGCCCCCGUCAGAUUCUGGUGGAUCUGCGAAUUCUGCUGCAUAUCUC [G9A A18C U41C A56G U74C]	0.06
